Experimental data as given in patent US20230078173A1 (ELIXIRON IMMUNOTHERAPEUTICS HONG KONG, published 2023).

T1: IL10Rα-Fc fusion protein (human, UniProt Q13651 22-235)
T1 construct: Bought from R&D Systems; also called human IL10Rα
T1 sequence (looked up): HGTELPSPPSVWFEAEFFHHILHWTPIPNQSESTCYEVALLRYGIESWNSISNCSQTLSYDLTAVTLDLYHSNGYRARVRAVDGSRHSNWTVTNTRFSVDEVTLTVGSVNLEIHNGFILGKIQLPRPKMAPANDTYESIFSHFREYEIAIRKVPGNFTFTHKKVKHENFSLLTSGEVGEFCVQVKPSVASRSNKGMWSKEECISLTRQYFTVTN


Experiments:
[1] = molecular target: T2, recombinant cynomolgus PD-L1 (cynomolgus monkey, UniProt Q9NZQ7 fragment (human entry)); assay: ELISA, cynomolgus PD-L1 immobilised (1 µg/mL)
T2 construct: also called cynoPD-L1; Cynomolgus PD-L1.ECD

[2] = molecular target: T3, recombinant human PD-L1-mFc fusion protein (human, UniProt Q9NZQ7 fragment); assay: competition ELISA, PD-L1 immobilised, competitor biotin-PD-1-Fc (30 µg/mL)
T3 construct: also called hPD-L1; huPD-L1

[3] = molecular target: T3, recombinant human PD-L1-mFc fusion …; assay: ELISA, human PD-L1-mFc immobilised (1 µg/mL), anti-human kappa-HRP detection
[4] = molecular target: T1, IL10Rα-Fc fusion protein; assay: ELISA, IL10Rα-Fc immobilised (1 µg/mL)

Binder | EC50 [1] | IC50 [2] | EC50 [3] | EC50 [4]
PHS206 (antibody, human IgG1, kappa) heavy: EVQLVESGGGLVQPGGSLRLSCAASGFTISDFGIHWVRQAPGKGLEWVAGISPDSGNTNYADSVKGRFTISADTSKNTAYLQMNSLRAEDTAVYFCARTFFRRSLDYWGQGTLVTVSSASTKGPSVFPLAPSSKSTSGGTAALGCLVKDYFPEPVTVSWNSGALTSGVHTFPAVLQSSGLYSLSSVVTVPSSSLGTQTYICNVNHKPSNTKVDKKV[letters of human IgG1 Fc with changes left out] light: DIQMTQSPSSLSASVGDRVTITCRASQDVSSGVAWYQQKPGKAPKLLISFANYLYSGVPSRFSGSGSGTDFTLTISSLQPEDFATYYCQQGSNLPFTFGQGTKVEIKRTVAAPSVFIFPPSDEQLKSGTASVVCLLNNFYPREAKVQWKVDNALQSGNSQESVTEQDSKDSTYSLSSTLTLSKADYEKHKVYACEVTHQGLSSPVTKSFNRGEC | 0.187 nM | 0.083 nM | 0.0525 nM | –
PHS206/IL10 (antibody, human IgG1, kappa) heavy: EVQLVESGGGLVQPGGSLRLSCAASGFTISDFGIHWVRQAPGKGLEWVAGISPDSGNTNYADSVKGRFTISADTSKNTAYLQMNSLRAEDTAVYFCARTFFRRSLDYWGQGTLVTVSSASTKGPSVFPLAPSSKSTSGGTAALGCLVKDYFPEPVTVSWNSGALTSGVHTFPAVLQSSGLYSLSSVVTVPSSSLGTQTYICNVNHKPSNTKVDKKV[letters of human IgG1 Fc with changes left out]LGGGGSGGGGSGGGGSPGQGTQSENSCTHFPGNLPNMLRDLRDAFSRVKTFFQMKDQLDNLLLKESLLEDFKGYLGCQALSEMIQFYLEEVMPQAENQDPDIKAHVNSLGENLKTLRLRLRRCHRFLPCENKSKAVEQVKNAFNKLQEKGIYKAMSEFDIFINYIEAYMTMKIRN light: DIQMTQSPSSLSASVGDRVTITCRASQDVSSGVAWYQQKPGKAPKLLISFANYLYSGVPSRFSGSGSGTDFTLTISSLQPEDFATYYCQQGSNLPFTFGQGTKVEIKRTVAAPSVFIFPPSDEQLKSGTASVVCLLNNFYPREAKVQWKVDNALQSGNSQESVTEQDSKDSTYSLSSTLTLSKADYEKHKVYACEVTHQGLSSPVTKSFNRGEC | – | 0.116 nM | 0.0629 nM | 61.9 nM
